Patent WO2015104322A1 (dated 2015)

Columns and labels:
[1] = biological target: T1, TNFR1 wild type, full-length (WT FL), on transfected cells (UniProt P19438 30-455, limits assumed); test: flow cytometry on HEK293 cells expressing full-length TNFR1, 10 ug/ml DMS5541-biotin, Streptavidin-Alexa Fluor 647
T1 construct: whole, on cells; Doxycycline-inducible expression; The cells also carry endogenous TNFR1; also called TNFRl full length
T1 sequence (looked up): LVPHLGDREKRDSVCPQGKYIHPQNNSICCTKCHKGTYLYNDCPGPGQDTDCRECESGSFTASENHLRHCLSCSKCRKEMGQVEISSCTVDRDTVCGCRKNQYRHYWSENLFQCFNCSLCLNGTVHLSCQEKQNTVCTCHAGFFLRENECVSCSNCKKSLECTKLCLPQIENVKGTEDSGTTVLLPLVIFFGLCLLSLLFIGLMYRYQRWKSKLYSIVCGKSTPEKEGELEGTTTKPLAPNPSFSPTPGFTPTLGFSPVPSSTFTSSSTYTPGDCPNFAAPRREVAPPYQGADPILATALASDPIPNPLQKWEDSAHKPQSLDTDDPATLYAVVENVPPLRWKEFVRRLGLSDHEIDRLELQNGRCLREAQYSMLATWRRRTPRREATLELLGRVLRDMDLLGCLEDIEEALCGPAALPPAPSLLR

[2] = biological target: T2, endogenously expressed TNFR1 on HEK293 cells (UniProt P19438 30-455, limits assumed); test: flow cytometry on HEK293 cells transfected with truncated TNFR1 (TR), 10 ug/ml DMS5541-biotin
T2 construct: whole, on cells; also called endogenous TNFRl; background TNFRl levels in HEK293 cells (TR cell line)
T2 sequence (looked up): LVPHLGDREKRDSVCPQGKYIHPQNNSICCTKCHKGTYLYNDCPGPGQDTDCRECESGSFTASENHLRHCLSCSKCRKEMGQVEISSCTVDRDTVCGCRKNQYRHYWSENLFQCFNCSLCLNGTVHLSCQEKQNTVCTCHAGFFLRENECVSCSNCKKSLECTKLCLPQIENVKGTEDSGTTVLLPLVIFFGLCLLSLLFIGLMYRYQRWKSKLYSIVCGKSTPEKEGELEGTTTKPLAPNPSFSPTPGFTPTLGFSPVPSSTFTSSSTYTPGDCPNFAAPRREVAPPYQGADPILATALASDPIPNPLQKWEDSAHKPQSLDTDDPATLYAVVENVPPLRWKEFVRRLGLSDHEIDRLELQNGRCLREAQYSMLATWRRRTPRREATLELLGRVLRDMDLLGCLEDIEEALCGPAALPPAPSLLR

[3] = biological target: T3, TNFR1 C33Y, full-length (C33Y FL), on transfected cells (UniProt P19438 30-455, limits assumed); test: flow cytometry on transfected HEK293 cells
T3 construct: whole, on cells; Position 33 follows the TRAPS variant numbering; also called TRAPS mutant TNFRl C33Y
T3 sequence (looked up): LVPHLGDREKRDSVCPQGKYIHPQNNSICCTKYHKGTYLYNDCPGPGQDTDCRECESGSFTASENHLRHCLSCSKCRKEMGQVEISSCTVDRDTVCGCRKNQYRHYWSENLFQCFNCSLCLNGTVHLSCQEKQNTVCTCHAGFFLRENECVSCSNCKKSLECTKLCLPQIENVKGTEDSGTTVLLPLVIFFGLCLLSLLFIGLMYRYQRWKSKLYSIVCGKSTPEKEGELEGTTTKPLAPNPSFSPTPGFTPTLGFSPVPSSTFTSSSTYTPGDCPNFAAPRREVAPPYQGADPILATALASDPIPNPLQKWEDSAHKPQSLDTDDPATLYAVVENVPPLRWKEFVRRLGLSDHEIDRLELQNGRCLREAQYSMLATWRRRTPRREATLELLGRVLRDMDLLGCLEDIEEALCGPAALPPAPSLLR

Measured: binding result

B1: DMS5541 (bispecific antibody)
chain: EVQLLESGGGLVQPGGSLRLSCAASGFTFDKYSMGWVRQAPGKGLEWVSQISDTADRTYYAH[about 20 residues omitted]MNSLRAEDTAVYYCAIYTGRWVPFEYWGQGTLVTVSSASTDIQMTQSPSSLSASVGDRVTITCRASRPIGTTLSWYQQKPGKAPKLLILWNSRLQSGVPSRFSGSGSGTDFTLTISSLQPEDFATYYCAQAGTHPTTFGQGTKVEIKR
modifications: biotinylated with EZ-Link Sulfo-NHS-LS-Biotin for the flow cytometry of Example 1
notes: also called DMS5541-biotin; D S5541
binds: all assays above
